Measurements taken from patent publication US20200085917A1 (UNIVERSITY OF PITTSBURGH OF THE COMMONWEALTH SYSTEM OF …, published 2020).

How the values were obtained:
Experiment in all cases: GST pull-down, LC-MS/MS
Hsdl1_IPI:IPI00225301.1 = biological target: T1, Hsdl1_IPI:IPI00225301.1 (mouse, UniProt Q8BTX9 2-330)
T1 sequence (looked up): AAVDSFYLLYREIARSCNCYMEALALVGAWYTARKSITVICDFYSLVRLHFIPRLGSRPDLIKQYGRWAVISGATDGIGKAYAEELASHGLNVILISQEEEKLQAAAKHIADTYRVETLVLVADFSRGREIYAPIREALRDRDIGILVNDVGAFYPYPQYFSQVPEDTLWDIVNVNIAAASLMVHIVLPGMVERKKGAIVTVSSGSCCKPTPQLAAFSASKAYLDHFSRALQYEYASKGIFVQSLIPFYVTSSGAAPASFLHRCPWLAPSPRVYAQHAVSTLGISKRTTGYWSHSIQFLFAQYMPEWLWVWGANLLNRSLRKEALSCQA
Description: (§1) Extracts were spun at 14,000 r.p.m. at 4° C., and clarified supernatants were incubated with glutathione 4B Sepharose beads (GE Healthcare) at 4° C. overnight. The glutathione beads were then washed extensively with ice-cold TNE buffer, and bound proteins were subjected to SDS-PAGE followed by immunoblotting analysis. For the samples subjected to mass spectrometry, glutathione bead-bound proteins from equal amounts (600 μg) of mitochondria were further washed with high stringency RIPA buffer following TNE buffer wash to decrease nonspecific interaction. Proteins were then eluted from the glutathione beads in SDS sample buffer, separated by SDS-PAGE and stained with Coomassie. Proteins in the gel were digested with trypsin and analyzed by mass spectrometry (LC-MS/MS) at the Taplin Biological Mass Spectrometry Facility (Harvard Medical School, Boston, Mass.).

Ywhaz_IPI:IPI00116498.1 = biological target: T2, Ywhaz_IPI:IPI00116498.1 (mouse, UniProt P63101 1-245)
T2 sequence (looked up): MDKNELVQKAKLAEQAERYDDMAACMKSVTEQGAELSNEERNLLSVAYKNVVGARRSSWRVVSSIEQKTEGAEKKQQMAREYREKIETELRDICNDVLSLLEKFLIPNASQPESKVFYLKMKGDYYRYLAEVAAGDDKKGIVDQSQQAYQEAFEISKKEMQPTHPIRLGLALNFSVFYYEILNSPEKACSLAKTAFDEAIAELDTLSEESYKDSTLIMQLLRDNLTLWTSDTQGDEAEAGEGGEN
Description: as §1

Mtch1_IPI:IPI00137173.1 = Mtch1_IPI:IPI00137173.1 (mouse, UniProt Q791T5 1-389, limits assumed)
Chain of Mtch1_IPI:IPI00137173.1 (Q791T5 whole entry): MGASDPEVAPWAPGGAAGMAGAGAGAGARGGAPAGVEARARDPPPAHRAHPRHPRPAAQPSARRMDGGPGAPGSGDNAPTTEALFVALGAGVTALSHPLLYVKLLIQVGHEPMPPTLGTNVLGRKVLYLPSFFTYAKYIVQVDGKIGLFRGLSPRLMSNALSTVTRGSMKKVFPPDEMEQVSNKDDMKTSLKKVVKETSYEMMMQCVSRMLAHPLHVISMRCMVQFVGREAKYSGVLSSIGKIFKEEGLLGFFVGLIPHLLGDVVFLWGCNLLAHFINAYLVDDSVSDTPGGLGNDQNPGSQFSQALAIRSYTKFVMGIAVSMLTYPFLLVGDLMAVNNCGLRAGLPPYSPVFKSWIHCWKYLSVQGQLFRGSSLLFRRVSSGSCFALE
Description: as §1

Rdh13_IPI:IPI00229040.1 = biological target: T3, Rdh13_IPI:IPI00229040.1 (mouse, UniProt Q8CEE7 2-334)
T3 sequence (looked up): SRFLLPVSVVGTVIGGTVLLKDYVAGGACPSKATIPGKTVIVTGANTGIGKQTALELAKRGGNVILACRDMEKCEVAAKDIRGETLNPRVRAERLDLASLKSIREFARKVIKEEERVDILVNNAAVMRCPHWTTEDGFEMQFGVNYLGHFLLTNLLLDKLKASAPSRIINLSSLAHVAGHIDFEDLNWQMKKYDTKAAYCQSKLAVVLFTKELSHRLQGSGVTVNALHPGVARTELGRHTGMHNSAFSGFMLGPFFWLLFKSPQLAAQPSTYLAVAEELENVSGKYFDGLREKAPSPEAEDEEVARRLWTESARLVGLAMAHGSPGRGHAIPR
Description: as §1

Acp6_IPI:IPI00624175.1 = biological target: T4, Acp6_IPI:IPI00624175.1 (mouse, UniProt Q8BP40 26-418)
T4 sequence (looked up): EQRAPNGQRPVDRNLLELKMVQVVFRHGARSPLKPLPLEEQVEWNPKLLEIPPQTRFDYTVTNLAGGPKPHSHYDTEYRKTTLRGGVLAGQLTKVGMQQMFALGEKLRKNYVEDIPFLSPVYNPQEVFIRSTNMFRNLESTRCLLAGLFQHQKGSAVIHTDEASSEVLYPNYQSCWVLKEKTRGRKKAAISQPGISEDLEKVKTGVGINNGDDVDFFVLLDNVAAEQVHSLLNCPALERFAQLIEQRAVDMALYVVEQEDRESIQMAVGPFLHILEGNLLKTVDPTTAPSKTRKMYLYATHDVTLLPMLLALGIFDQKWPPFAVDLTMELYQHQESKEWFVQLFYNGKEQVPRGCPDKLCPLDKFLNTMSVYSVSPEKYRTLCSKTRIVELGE
Description: as §1

Oxa1l_IPI:IPI00308001.1 = Oxa1l_IPI:IPI00308001.1 (mouse, UniProt Q8BGA9 1-433, limits assumed)
Chain of Oxa1l_IPI:IPI00308001.1 (Q8BGA9 whole entry): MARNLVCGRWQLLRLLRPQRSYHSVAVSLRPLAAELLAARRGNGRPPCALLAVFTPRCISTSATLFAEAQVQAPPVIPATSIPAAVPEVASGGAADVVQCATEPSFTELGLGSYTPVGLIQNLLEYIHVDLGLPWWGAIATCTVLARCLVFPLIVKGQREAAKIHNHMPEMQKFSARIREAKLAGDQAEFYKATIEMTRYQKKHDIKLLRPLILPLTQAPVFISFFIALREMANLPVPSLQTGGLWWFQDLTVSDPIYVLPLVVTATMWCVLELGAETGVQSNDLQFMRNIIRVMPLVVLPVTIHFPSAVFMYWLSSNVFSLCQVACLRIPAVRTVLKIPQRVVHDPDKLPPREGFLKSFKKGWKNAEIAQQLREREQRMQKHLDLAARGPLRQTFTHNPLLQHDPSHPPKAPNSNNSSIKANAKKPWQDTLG
Description: as §1

[1] = biological target: T5, Tim50 (endogenous, mouse) (mouse, UniProt Q9D880 22-353)
T5 construct: also called Timm50_IPI:IPI00111045.1; Timm50
T5 sequence (Q9D880 22-353 limits assumed): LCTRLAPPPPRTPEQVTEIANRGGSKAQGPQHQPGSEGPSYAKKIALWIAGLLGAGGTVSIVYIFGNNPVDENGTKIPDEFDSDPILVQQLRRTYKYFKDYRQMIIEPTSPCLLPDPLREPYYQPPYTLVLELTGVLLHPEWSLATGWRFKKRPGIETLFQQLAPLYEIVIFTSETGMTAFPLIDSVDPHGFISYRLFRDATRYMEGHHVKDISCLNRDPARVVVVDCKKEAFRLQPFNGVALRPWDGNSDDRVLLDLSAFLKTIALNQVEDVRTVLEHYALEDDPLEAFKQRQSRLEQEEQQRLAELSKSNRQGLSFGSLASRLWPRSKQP
Description: as §1

Tuba4a_IPI:IPI00117350.1 = Tuba4a_IPI:IPI00117350.1 (mouse, UniProt P68368 1-448)
Chain of Tuba4a_IPI:IPI00117350.1 (P68368 whole entry): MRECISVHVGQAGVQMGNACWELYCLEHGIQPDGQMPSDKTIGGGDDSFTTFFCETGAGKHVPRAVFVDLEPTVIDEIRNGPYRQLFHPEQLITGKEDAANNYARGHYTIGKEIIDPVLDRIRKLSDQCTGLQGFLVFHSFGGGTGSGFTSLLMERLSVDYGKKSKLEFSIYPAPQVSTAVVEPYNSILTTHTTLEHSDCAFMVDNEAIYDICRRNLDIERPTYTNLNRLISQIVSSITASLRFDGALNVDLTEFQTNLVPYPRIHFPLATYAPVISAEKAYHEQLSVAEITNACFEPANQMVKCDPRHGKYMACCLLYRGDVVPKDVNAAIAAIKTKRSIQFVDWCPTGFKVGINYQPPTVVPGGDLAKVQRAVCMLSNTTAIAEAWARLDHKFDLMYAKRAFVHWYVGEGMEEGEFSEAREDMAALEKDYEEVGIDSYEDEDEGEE
Description: as §1

[2] = biological target: T6, Slc25a10_IPI:IPI00317074.3 (mouse, UniProt Q9QZD8 1-287)
T6 sequence (looked up): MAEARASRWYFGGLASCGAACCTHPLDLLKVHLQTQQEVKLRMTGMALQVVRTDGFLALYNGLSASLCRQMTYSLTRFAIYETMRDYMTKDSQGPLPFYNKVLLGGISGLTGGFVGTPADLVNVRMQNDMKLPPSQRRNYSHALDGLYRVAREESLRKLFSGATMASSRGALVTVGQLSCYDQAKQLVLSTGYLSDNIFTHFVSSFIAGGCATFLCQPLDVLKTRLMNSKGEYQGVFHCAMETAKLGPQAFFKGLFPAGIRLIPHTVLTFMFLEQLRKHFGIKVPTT
Description: as §1

Sfxn5_IPI:IPI00221602.1 = biological target: T7, Sfxn5_IPI:IPI00221602.1 (mouse, UniProt Q925N0 1-342)
T7 sequence (looked up): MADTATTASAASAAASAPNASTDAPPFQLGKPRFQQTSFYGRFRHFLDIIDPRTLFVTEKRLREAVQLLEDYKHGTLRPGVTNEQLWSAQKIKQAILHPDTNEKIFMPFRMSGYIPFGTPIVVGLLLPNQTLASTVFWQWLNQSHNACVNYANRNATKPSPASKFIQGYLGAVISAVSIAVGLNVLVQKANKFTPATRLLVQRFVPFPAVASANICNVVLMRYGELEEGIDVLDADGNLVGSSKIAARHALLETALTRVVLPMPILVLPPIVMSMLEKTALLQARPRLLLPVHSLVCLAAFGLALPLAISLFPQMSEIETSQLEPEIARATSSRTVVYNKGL
Description: as §1

Measured: binding result

B1: GST alone (other)
chain: not shown
notes: Negative control of the pull-downs; also called control GST
no binding: Hsdl1_IPI:IPI00225301.1 | Ywhaz_IPI:IPI00116498.1 | Mtch1_IPI:IPI00137173.1 | Rdh13_IPI:IPI00229040.1 | Acp6_IPI:IPI00624175.1 | Oxa1l_IPI:IPI00308001.1 | [1] | Tuba4a_IPI:IPI00117350.1 | [2] | Sfxn5_IPI:IPI00221602.1
